The target of the test is T1, Cyno TfR ECD Avi-His (cynomolgus macaque, UniProt Q5RDH6 89-760 (Pongo abelii entry), biotin on the Avi tag (BirA) where captured on streptavidin).
T1 construct: also called Cyno TfR Avi-His; cyno TfR Avi-His
T1 chain: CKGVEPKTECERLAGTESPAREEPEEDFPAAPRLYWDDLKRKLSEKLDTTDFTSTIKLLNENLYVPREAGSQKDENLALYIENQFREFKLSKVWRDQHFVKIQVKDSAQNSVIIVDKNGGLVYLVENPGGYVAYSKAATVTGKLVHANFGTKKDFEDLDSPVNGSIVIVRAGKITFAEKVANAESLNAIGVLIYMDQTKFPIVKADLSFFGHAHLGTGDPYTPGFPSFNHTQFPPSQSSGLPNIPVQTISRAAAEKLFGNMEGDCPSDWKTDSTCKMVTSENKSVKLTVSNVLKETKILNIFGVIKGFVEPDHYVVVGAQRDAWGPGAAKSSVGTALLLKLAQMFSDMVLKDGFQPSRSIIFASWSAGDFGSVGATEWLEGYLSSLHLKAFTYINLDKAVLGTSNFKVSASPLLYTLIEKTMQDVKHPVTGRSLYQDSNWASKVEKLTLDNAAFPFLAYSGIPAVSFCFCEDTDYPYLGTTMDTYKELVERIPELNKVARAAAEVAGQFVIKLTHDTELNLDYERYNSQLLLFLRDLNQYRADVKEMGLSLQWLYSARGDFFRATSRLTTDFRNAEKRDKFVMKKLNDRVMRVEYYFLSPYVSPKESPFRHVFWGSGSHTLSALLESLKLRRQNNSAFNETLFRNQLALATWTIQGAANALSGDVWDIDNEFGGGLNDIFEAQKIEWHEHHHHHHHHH
Description: SPR (Carterra LSA), 2+1 immobilised. As for the experimental part:
The remaining unconjugated active groups on the chip were then blocked by injecting 1M Ethanolamine pH 8.5 (Carterra) for 7 minutes using the single channel flow cell.
Estimates of affinity were generated by injecting each analyte over the entire antibody array using the single channel flow cell. […] Data were processed and analyzed using NextGenKIT high-throughput kinetics analysis software (Carterra).

B1: TfR9.1B.43 2+1 anti-TfR bispecific antibody (bispecific antibody, human IgG1, kappa)
heavy 1: EVRLLESGGGLVQPGGSLRLSCAASGFTFSNYAMGWVRQAPGKGLEWVSAISGSGGSTYYADSVKGRFTTSRDDSKNALYLQMNSLRAEDTAVYYCARGGPGWYAADVWGQGTTVTVSSASTKGPSVFPLAPSSKSTSGGTAALGCLVKDYFPEPVTVSWNSGALTSGVHTFPAVLQSSGLYSLSSVVTVPSSSLGTQTYICNVNHKPSNTKVDKKV[here human IgG1 Fc with changes without letters]GGGGSGGGGSGGGGSQVQLVQSGAEVKKPGASVKVSCKASGYTFTEYAMHWVRQAPGQGLEWMGGINPNDGGTSYLQKFKGRVTMTVDTSTSTAYMELSSLRSEDTAVYYCASQRWLLRGGDYWGQGTLVTVSSGGSEGKSSGSGSESKSTGGSDVVMTQSPLSLPVTLGQPASISCKSSQSLLDSDGKTYLNWLQQRPGQSPRRLIYLVSKLDSGVPDRFSGSGSGTDFTLKISRVEAEDVGVYYCWQGTHFPQTFGGGTKVEIK
heavy 2: EVRLLESGGGLVQPGGSLRLSCAASGFTFSNYAMGWVRQAPGKGLEWVSAISGSGGSTYYADSVKGRFTTSRDDSKNALYLQMNSLRAEDTAVYYCARGGPGWYAADVWGQGTTVTVSS[here human IgG1 constant region with changes without letters]
light: DIQMTQSPSSLSASVGDRVTITCRASQSISSYLNWYQQKPGKAPKLLIYAASSLQSGVPSRFSGSGSGTDFTLTISSLQPEDFATYYCQQADLPAFAFGGGTKVEIKRTVAAPSVFIFPPSDEQLKSGTASVVCLLNNFYPREAKVQWKVDNALQSGNSQESVTEQDSKDSTYSLSSTLTLSKADYEKHKVYACEVTHQGLSSPVTKSFNRGEC
notes: 2+1
Take B1: the binding result is listed as “binds”.

B2: TfR15.WH7 2+1 anti-TfR bispecific antibody (bispecific antibody, human IgG1, kappa)
heavy 1: EVRLLESGGGLVQPGGSLRLSCAASGFTFSNYAMGWVRQAPGKGLEWVSAISGSGGSTYYADSVKGRFTTSRDDSKNALYLQMNSLRAEDTAVYYCARGGPGWYAADVWGQGTTVTVSSASTKGPSVFPLAPSSKSTSGGTAALGCLVKDYFPEPVTVSWNSGALTSGVHTFPAVLQSSGLYSLSSVVTVPSSSLGTQTYICNVNHKPSNTKVDKKV[here human IgG1 Fc with changes without letters]GGGGSGGGGSGGGGSQVQLVQSGAEVKKPGASVKVSCKASGYTFTSYWMHWVRQAPGQGLEWMGNIYPGSGSSNYAQKFQGRVTMTRDTSTSTVYMELSSLRSEDTAVYYCTRSSYYGNFDTMDNWGQGTTVTVSSGGSEGKSSGSGSESKSTGGSDIQLTQSPSFLSASVGDRVTITCRASSSIRYMNWYQQKPGKAPKRLIYDTSTLQSGVPSRFSGSGSGTEFTLTISSLQPEDFATYYCHQRSSYPWTFGGGTKVEIK
heavy 2: EVRLLESGGGLVQPGGSLRLSCAASGFTFSNYAMGWVRQAPGKGLEWVSAISGSGGSTYYADSVKGRFTTSRDDSKNALYLQMNSLRAEDTAVYYCARGGPGWYAADVWGQGTTVTVSS[here human IgG1 constant region with changes without letters]
light: DIQMTQSPSSLSASVGDRVTITCRASQSISSYLNWYQQKPGKAPKLLIYAASSLQSGVPSRFSGSGSGTDFTLTISSLQPEDFATYYCQQADLPAFAFGGGTKVEIKRTVAAPSVFIFPPSDEQLKSGTASVVCLLNNFYPREAKVQWKVDNALQSGNSQESVTEQDSKDSTYSLSSTLTLSKADYEKHKVYACEVTHQGLSSPVTKSFNRGEC
notes: 2+1
What is called Kd is the equilibrium constant for the complex coming apart. High values mean lower affinity, low ones higher affinity. For the molecule B2, the Kd amounted to 53 nM.

B3: TfR15.WH9 2+1 anti-TfR bispecific antibody (bispecific antibody, human IgG1, kappa)
heavy 1: EVRLLESGGGLVQPGGSLRLSCAASGFTFSNYAMGWVRQAPGKGLEWVSAISGSGGSTYYADSVKGRFTTSRDDSKNALYLQMNSLRAEDTAVYYCARGGPGWYAADVWGQGTTVTVSSASTKGPSVFPLAPSSKSTSGGTAALGCLVKDYFPEPVTVSWNSGALTSGVHTFPAVLQSSGLYSLSSVVTVPSSSLGTQTYICNVNHKPSNTKVDKKV[here human IgG1 Fc with changes without letters]GGGGSGGGGSGGGGSQVQLVQSGAEVKKPGASVKVSCKASGYTFTSYWMHWVRQAPGQGLEWMGNIYPGSGSSNYAQKFQGRVTMTRDTSTSTVYMELSSLRSEDTAVYYCTRSSYYGNFDTMDNWGQGTTVTVSSGGSEGKSSGSGSESKSTGGSDIQMTQSPSSLSASVGDRVTITCRASSSIRYLNWYQQKPGKAPKRLIYDTSSLQSGVPSRFSGSGSGTDFTLTISSLQPEDFATYYCHQRSSYPWTFGGGTKVEIK
heavy 2: EVRLLESGGGLVQPGGSLRLSCAASGFTFSNYAMGWVRQAPGKGLEWVSAISGSGGSTYYADSVKGRFTTSRDDSKNALYLQMNSLRAEDTAVYYCARGGPGWYAADVWGQGTTVTVSS[here human IgG1 constant region with changes without letters]
light: DIQMTQSPSSLSASVGDRVTITCRASQSISSYLNWYQQKPGKAPKLLIYAASSLQSGVPSRFSGSGSGTDFTLTISSLQPEDFATYYCQQADLPAFAFGGGTKVEIKRTVAAPSVFIFPPSDEQLKSGTASVVCLLNNFYPREAKVQWKVDNALQSGNSQESVTEQDSKDSTYSLSSTLTLSKADYEKHKVYACEVTHQGLSSPVTKSFNRGEC
notes: 2+1
Molecule B3 yielded a Kd of 220 nM.

B4: TfR9.1B.45 2+1 anti-TfR bispecific antibody (bispecific antibody, human IgG1, kappa)
heavy 1: EVRLLESGGGLVQPGGSLRLSCAASGFTFSNYAMGWVRQAPGKGLEWVSAISGSGGSTYYADSVKGRFTTSRDDSKNALYLQMNSLRAEDTAVYYCARGGPGWYAADVWGQGTTVTVSSASTKGPSVFPLAPSSKSTSGGTAALGCLVKDYFPEPVTVSWNSGALTSGVHTFPAVLQSSGLYSLSSVVTVPSSSLGTQTYICNVNHKPSNTKVDKKV[here human IgG1 Fc with changes without letters]GGGGSGGGGSGGGGSQVQLVQSGAEVKKPGASVKVSCKASGYTFTEYAMHWVRQAPGQGLEWMGGINPNDGGTSYNQKFKGRVTMTVDTSTSTAYMELSSLRSEDTAVYYCASQGWLQRGGDYWGQGTLVTVSSGGSEGKSSGSGSESKSTGGSDVVMTQSPLSLPVTLGQPASISCKSSVSLLDSDGKTYLNWLQQRPGQSPRRLIYLVSKLDSGVPDRFSGSGSGTDFTLKISRVEAEDVGVYYCWQGTHFPQTFGGGTKVEIK
heavy 2: EVRLLESGGGLVQPGGSLRLSCAASGFTFSNYAMGWVRQAPGKGLEWVSAISGSGGSTYYADSVKGRFTTSRDDSKNALYLQMNSLRAEDTAVYYCARGGPGWYAADVWGQGTTVTVSS[here human IgG1 constant region with changes without letters]
light: DIQMTQSPSSLSASVGDRVTITCRASQSISSYLNWYQQKPGKAPKLLIYAASSLQSGVPSRFSGSGSGTDFTLTISSLQPEDFATYYCQQADLPAFAFGGGTKVEIKRTVAAPSVFIFPPSDEQLKSGTASVVCLLNNFYPREAKVQWKVDNALQSGNSQESVTEQDSKDSTYSLSSTLTLSKADYEKHKVYACEVTHQGLSSPVTKSFNRGEC
notes: 2+1
As for B4, the binding result is reported as “binds”.

B5: TfR15.WH10 2+1 anti-TfR bispecific antibody (bispecific antibody, human IgG1, kappa)
heavy 1: EVRLLESGGGLVQPGGSLRLSCAASGFTFSNYAMGWVRQAPGKGLEWVSAISGSGGSTYYADSVKGRFTTSRDDSKNALYLQMNSLRAEDTAVYYCARGGPGWYAADVWGQGTTVTVSSASTKGPSVFPLAPSSKSTSGGTAALGCLVKDYFPEPVTVSWNSGALTSGVHTFPAVLQSSGLYSLSSVVTVPSSSLGTQTYICNVNHKPSNTKVDKKV[here human IgG1 Fc with changes without letters]GGGGSGGGGSGGGGSQVQLVQSGAEVKKPGASVKVSCKASGYTFTSYWMHWVRQAPGQGLEWMGNIYPGSGSSNYAQKFQGRVTLTVDTSTSTVYMELSSLRSEDTAVYYCTRSSYYGNFDTMDNWGQGTTVTVSSGGSEGKSSGSGSESKSTGGSDIQLTQSPSFLSASVGDRVTITCRASSSIRYMNWYQQKPGKAPKRLIYDTSTLQSGVPSRFSGSGSGTEFTLTISSLQPEDFATYYCHQRSSYPWTFGGGTKVEIK
heavy 2: EVRLLESGGGLVQPGGSLRLSCAASGFTFSNYAMGWVRQAPGKGLEWVSAISGSGGSTYYADSVKGRFTTSRDDSKNALYLQMNSLRAEDTAVYYCARGGPGWYAADVWGQGTTVTVSS[here human IgG1 constant region with changes without letters]
light: DIQMTQSPSSLSASVGDRVTITCRASQSISSYLNWYQQKPGKAPKLLIYAASSLQSGVPSRFSGSGSGTDFTLTISSLQPEDFATYYCQQADLPAFAFGGGTKVEIKRTVAAPSVFIFPPSDEQLKSGTASVVCLLNNFYPREAKVQWKVDNALQSGNSQESVTEQDSKDSTYSLSSTLTLSKADYEKHKVYACEVTHQGLSSPVTKSFNRGEC
notes: 2+1
In turn, B5 showed a dissociation constant (Kd) of 39 nM.

These data come from patent US20250270339A1 (Alector, published 2025).
